The antibiotic and cytotoxicity screens of Wong et al. (2023)
The list shows a part of the results.

tested on: HSkMC (human skeletal muscle cells); assay: cytotoxicity call (relative viability < 0.9); conditions: 10 µM

Compound	cytotoxicity call
CO[C@@H]1CN(C)C(=O)c2ccc(NC(=O)NC(C)C)cc2OC[C@@H](C)N(Cc2ccc(-c3ccccn3)cc2)C[C@@H]1C	inactive
C=CCCCCCCCCC(=O)O	inactive
C[C@@H]1CCCCO[C@@H](CN(C)S(=O)(=O)c2ccc(Cl)cc2)[C@H](C)CN([C@@H](C)CO)C(=O)c2cc(NC(=O)c3ccncc3)ccc2O1	inactive
CN(C)C(=N)NC(=N)N.Cl	inactive
C[C@H](O)C#Cc1ccc2c(c1)O[C@@H](CN(C)C(=O)c1ccccc1)[C@H](C)CN([C@@H](C)CO)S2(=O)=O	inactive
Cc1ccc(S(=O)(=O)N(C)C[C@@H]2OCCCC[C@@H](C)Oc3ccc(NS(=O)(=O)c4ccc(Cl)cc4)cc3C(=O)N([C@H](C)CO)C[C@@H]2C)cc1	inactive
C[C@@H]1CN([C@H](C)CO)C(=O)c2cccc(NC(=O)C3CCOCC3)c2O[C@H]1CN(C)S(=O)(=O)c1cn(C)cn1	inactive
CC(C)NC(=O)N(C)C[C@@H]1Oc2ccc(NS(=O)(=O)c3ccccc3)cc2CC(=O)N([C@H](C)CO)C[C@@H]1C	inactive
O=C(N[C@H]1C=C[C@H](CC(=O)N2CCOCC2)O[C@H]1CO)c1ccc2c(c1)OCO2	inactive
C[C@@H]1CN([C@H](C)CO)C(=O)c2cc(NC(=O)CCCN(C)C)ccc2O[C@H]1CN(C)S(=O)(=O)c1ccc(Cl)cc1	inactive
C[C@@H]1CN([C@@H](C)CO)C(=O)c2cc(NS(=O)(=O)c3cn(C)cn3)ccc2O[C@@H]1CN(C)Cc1ccc(C(=O)Nc2ccccc2N)cc1	inactive
COc1ccc(NC(=O)N(C)C[C@H]2OCCCC[C@H](C)Oc3ccc(NC(=O)Nc4ccc(F)cc4)cc3C(=O)N([C@@H](C)CO)C[C@@H]2C)cc1	inactive
CCCCOc1ccc(C(=O)C2=C(O)C(=O)N(Cc3cccnc3)[C@H]2c2ccc(O)c(OCC)c2)c(C)c1	inactive
CO[C@@H]1CN(C)C(=O)c2ccc(NS(=O)(=O)CC(F)(F)F)cc2OC[C@@H](C)N(C(=O)NC(C)C)C[C@H]1C	inactive
C[C@H]1CN([C@@H](C)CO)C(=O)Cc2cc(NC(=O)Nc3ccc4c(c3)OCO4)ccc2O[C@H]1CN(C)Cc1ccc(C(F)(F)F)cc1	inactive
Oc1ccc(F)c2ccccc12	inactive
C[C@@H]1CN([C@@H](C)CO)C(=O)c2cc(NC(=O)CCCCCC(=O)Nc3ccccc3N)ccc2O[C@H]1CN(C)Cc1ccccc1	inactive
CNC(=O)C[C@@H]1CC[C@H]2[C@H](COc3ccc(NC(=O)c4ccc(C(F)(F)F)cc4)cc3C(=O)N2C)O1	inactive
C[C@@H]1CN([C@@H](C)CO)C(=O)c2cc(NS(=O)(=O)c3ccccc3)ccc2O[C@@H](C)CCCCO[C@@H]1CN(C)CC1CCCCC1	inactive
Cn1cnc(S(=O)(=O)N2C[C@@H](O)COC[C@@H]3O[C@H](CC(=O)NCc4cccc(F)c4)CC[C@H]32)c1	inactive

Compound	cytotoxicity call
COCC#Cc1ccc([C@H]2[C@H]3CN(C(=O)c4cccnc4)CC(=O)N3[C@H]2CO)cc1	inactive
C[C@@H]1CN([C@H](C)CO)C(=O)c2cccc(NC(=O)c3cnccn3)c2O[C@H]1CN(C)S(=O)(=O)c1ccccc1	inactive
COc1ccc2c3c([nH]c2c1)[C@H](CO)N(C[C@]13CN(CC2CCCCC2)C1)C(=O)Nc1cccc(c1)F	active
Nc1nc(Cl)nc2c1ncn2[C@H]1C[C@@H](O)[C@@H](COP(=O)(O)OP(=O)(O)OP(=O)(O)O)O1	inactive
C[C@@H]1CN([C@@H](C)CO)C(=O)c2cc(NS(=O)(=O)c3ccc(F)cc3)ccc2O[C@@H](C)CCCCO[C@@H]1CN(C)C(=O)Nc1cccc2ccccc12	inactive
C[C@@H]1CN([C@H](C)CO)S(=O)(=O)c2ccc(Br)cc2O[C@H]1CN(C)C(=O)Nc1ccccc1	inactive
O=C(C[C@H]1CC[C@H]2[C@@H](COC[C@@H](O)CN2S(=O)(=O)c2ccccc2)O1)N1CCOCC1	inactive
COc1ccc(S(=O)(=O)Nc2cccc3c2O[C@H](CN(C)C(=O)Nc2cccc4ccccc24)[C@H](C)CN([C@@H](C)CO)C3=O)cc1	inactive
C[C@H]1CN([C@@H](C)CO)C(=O)Cc2cc(NS(C)(=O)=O)ccc2O[C@H]1CN(C)C(=O)Nc1ccc(C(F)(F)F)cc1	inactive
C[C@H](CO)N1C[C@H](C)[C@H](CN(C)C(=O)Nc2cccc3ccccc23)Oc2ccc(NC(=O)C3CCCCC3)cc2CC1=O	inactive
Cc1noc(C)c1NC(=O)N(C)C[C@H]1Oc2ccc(NS(=O)(=O)c3c(C)noc3C)cc2CC(=O)N([C@H](C)CO)C[C@@H]1C	inactive
C[C@H]1CCCCO[C@H](CN(C)S(=O)(=O)c2ccc(Cl)cc2)[C@@H](C)CN([C@@H](C)CO)C(=O)c2cc(NC(=O)Nc3ccc(C(F)(F)F)cc3)ccc2O1	inactive
CC1(C)C[C@@](C)(c2ccccc2)c2cc(SC#N)ccc2N1	inactive
C[C@H]1CN([C@@H](C)CO)S(=O)(=O)c2ccc(C#Cc3ccncc3)cc2O[C@@H]1CN(C)C(=O)Nc1ccc2c(c1)OCO2	inactive
CC(=C\C(=O)O)/C=C(\C)C[C@H](C)CCCC[C@H](OC(=O)[C@H](CO)[C@H](O)CCCC[C@H](C)C/C(C)=C/C(C)=C/C(=O)O)[C@@H](CO)C(=O)O	inactive
COc1ccncc1-c1ccccc1CN(C(=O)c1ccc(-c2ccc(C#N)cc2)o1)c1ccc(N2CCNCC2)cc1	active
CCS(=O)(=O)NCC[C@H]1CC[C@H](NC(=O)C2CCOCC2)[C@@H](CO)O1	inactive
C[C@H]1CN([C@@H](C)CO)C(=O)c2cccc(NS(=O)(=O)c3cn(C)cn3)c2O[C@H]1CN(C)Cc1ccc2c(c1)OCO2	inactive
C[C@@H]1CCCCO[C@H](CN(C)C(=O)Nc2ccc3c(c2)OCO3)[C@@H](C)CN([C@H](C)CO)C(=O)c2cc(NC(=O)Nc3ccc4c(c3)OCO4)ccc2O1	inactive
Cc1noc(C)c1S(=O)(=O)Nc1cccc2c1O[C@H](CN(C)Cc1ccccc1)[C@H](C)CN([C@@H](C)CO)C2=O	inactive
